PubChem BioAssay AID2147 (National Center for Advancing Translational Sciences (NCATS), 2009)
Out of some 230,000 compounds screened, about 3,600 (1.6%) were called active. The shares of active, inactive and inconclusive entries below differ from those in the screen. The call rests on the fitted dose curve; in most records, active means well fitted inhibition curve with a large enough effect (not every such curve was filed as active); inconclusive means small, poorly fitted or top-dose-only effect, or another doubt; inactive means no such curve, though single readings can be large or run the other way. A potency beside an inconclusive call is a rough fit, not a confirmed value. A structure can be active in one record and inactive in another.

molecular target: Lysine-specific demethylase 4E (Homo sapiens) (UniProt B2RXH2); test: qHTS Assay for Inhibitors of Human Jumonji Domain Containing 2E (JMJD2E); details: JMJD2E catalytic domain, FDH-coupled NADH fluorescence (FDH is formaldehyde dehydrogenase); series mostly up to 57.1 µM
Further: nearly all actives have a fitted effect of over 50% in size.
Potency means the concentration at half of the fitted maximal effect; tags describe the fitted curve by direction and shape.
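Wherever activity change, negative = inhibition is given: 0% = wells with enzyme and -100% = buffer wells without enzyme.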

Chain of UniProt B2RXH2 (B2RXH2 whole entry, looked up, the tested form may be a part): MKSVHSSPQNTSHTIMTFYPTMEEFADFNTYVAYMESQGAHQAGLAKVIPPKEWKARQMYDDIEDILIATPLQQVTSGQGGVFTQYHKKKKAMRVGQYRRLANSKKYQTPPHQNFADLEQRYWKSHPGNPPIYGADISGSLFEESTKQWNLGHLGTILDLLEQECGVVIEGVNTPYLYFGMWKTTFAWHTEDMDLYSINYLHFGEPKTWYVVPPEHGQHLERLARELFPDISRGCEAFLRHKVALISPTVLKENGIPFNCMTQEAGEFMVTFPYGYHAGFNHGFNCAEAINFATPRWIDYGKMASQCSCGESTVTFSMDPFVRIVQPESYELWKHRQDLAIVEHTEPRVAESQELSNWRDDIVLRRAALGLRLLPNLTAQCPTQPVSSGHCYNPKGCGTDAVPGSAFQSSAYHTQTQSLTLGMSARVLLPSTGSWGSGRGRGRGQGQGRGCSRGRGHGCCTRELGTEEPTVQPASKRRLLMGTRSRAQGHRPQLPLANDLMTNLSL

SMILES | Potency | activity change, negative = inhibition
COC(=O)c1sc2nc(SCC(=O)N(C)c3ccccc3)n(N)c(=O)c2c1C | inconclusive: 10 µM [inhibitor, partial curve] | –
COc1ccc(/C(N)=N/OC(=O)/C=C/c2ccccc2)cc1 | inconclusive: 35.5 µM [inhibitor, single point] | –
CC(C)Cn1c(=S)[nH]c2cc(C(=O)O)ccc2c1=O | inconclusive: 28.2 µM [inhibitor, single point] | –
CCN(CC)C(=O)c1ccc(/C=C/c2c[nH]c3ccccc23)[n+](C)c1 | inactive | –
CCOc1ccc(N/C=C/C(=O)c2ccccc2)c([N+](=O)[O-])c1 | inactive | –
CCOC(=O)c1ccc(-c2ccc(/C=N/NC(=O)CN(c3ccccc3Br)S(C)(=O)=O)o2)cc1 | inconclusive: 12.6 µM [inhibitor, partial curve] | –
CCn1c(C(=O)OC)cc2c1ccn2-c1ccc(F)cc1 | inconclusive: 35.5 µM [inhibitor, single point] | –
O=C(O)C1CCCCC1C(=O)NCc1cn2ccccc2n1 (stereo not drawn) | inconclusive: 28.2 µM [inhibitor, partial curve] | –
CCn1c(=O)c(C(=O)Nc2ccsc2C(=O)OC)c(O)c2ccccc21 | inactive | –
Cc1cc(C)c(C#N)c(N2CCCC(C(N)=O)C2)n1 (stereo not drawn) | inconclusive: 28.2 µM [inhibitor, partial curve] | –
Cc1oc2c(CN3CCCC3)c(O)ccc2c(=O)c1Oc1ccccc1Br | inconclusive: 28.2 µM [inhibitor, partial curve] | –
Cc1ccc(NC(=O)c2scc3c2CCCC3)cc1 | inconclusive: 35.5 µM [inhibitor, single point] | –
CCOC(=O)N1CCc2c(sc3nc4n(c(=O)c23)N=C(C)CS4)C1 | inconclusive: 35.5 µM [inhibitor, single point] | –
CCOc1ccc(C2C(C(=O)c3ccc(C)o3)=C(O)C(=O)N2CCN2CCOCC2)cc1OC (stereo not drawn) | inactive | –
COc1ccc(C2=Nn3c(nnc3-c3ccccn3)SC2)cc1OC | inactive | –
COC(=O)N/N=C/c1cc(C)n(-c2ccccc2)c1C | inconclusive: 31.6 µM [inhibitor, single point] | –
Nc1ccccc1C#CCCCCO | active: 20 µM | –
COc1cc(Cl)c(C)cc1NC(=O)CSCC#N | inactive | –
Cc1nc(SCc2ccc(C(=O)O)cc2)nc2c1CCCC2 | inconclusive: 14.1 µM [inhibitor, partial curve, poor fit] | –
COc1ccc(F)cc1S(=O)(=O)N1CCCCC1 | inconclusive: 35.5 µM [inhibitor, single point] | –
Cc1oc(-c2ccccc2)cc1C(=O)Nc1cccc(/C=C\C(=O)O)c1 | inactive | –
O=S(=O)(Nc1ccc(N2CCOCC2)nn1)c1ccccc1 | inconclusive: 22.4 µM [inhibitor, single point] | –
COc1ccc(C(F)(F)F)cc1N/C=C\c1nnnn1-c1ccccc1 | inconclusive: 35.5 µM [inhibitor, single point] | –
CCCN1c2cccc3cccc(c23)S1(=O)=O | inconclusive: 35.5 µM [inhibitor, partial curve] | –

SMILES | Potency | activity change, negative = inhibition
Cc1c(-c2c(C#N)c(N)nc3c2CCCCCC3)cnn1C | inconclusive: 31.6 µM [inhibitor, partial curve] | –
CCOc1cccc(C2c3c(oc4cc(C)c(C)cc4c3=O)C(=O)N2CCCN(C)C)c1 (stereo not drawn) | inconclusive: 35.5 µM [inhibitor, single point] | –
CNc1ncnc2sc(-c3ccccc3)cc12 | inconclusive: 28.2 µM [inhibitor, partial curve] | –
Fc1ccc(C2C3=C(Nc4ncnn42)c2ccccc2OC3c2ccncc2)cc1 (stereo not drawn) | inconclusive: 25.1 µM [inhibitor, partial curve] | –
CN1CCc2c(C#N)c(N3CCCCC3)nc(NCc3ccccc3)c2C1 | inconclusive: 25.1 µM [inhibitor, partial curve] | –
CCCCC1=CC2=CC(=O)C(C)(OC(=O)CC)C(=O)C2=CN1CCN1CCOCC1 (stereo not drawn) | inconclusive: 31.6 µM [inhibitor, partial curve] | inactive: -0.182% [at 11.4 µM]
CC(C)C[C@@H](CC(=O)N[C@@H](CCC(=O)O)CC(=O)O)NC(=O)[C@@H]1CCCC[C@H]1NC(=O)C[C@@H](NC(=O)C[C@H](CO)NC(=O)[C@@H]1CCCC[C@H]1N)C(C)C | inactive | –
COc1ccc(C(CC(=O)N2CCN(c3ccccc3)CC2)c2c(O)cc(OC)cc2OC)cc1 (stereo not drawn) | inconclusive: 39.8 µM [inhibitor, single point] | –
CCOC(=O)c1sc2ncnc(N3CCN(CC)CC3)c2c1C | inconclusive: 20 µM [inhibitor, partial curve] | –
O=S(=O)(c1ccc(N2CCOCC2)nc1)N(Cc1ccccn1)Cc1ccccn1 | inconclusive: 35.5 µM [inhibitor, partial curve, poor fit] | –
Cc1ccc(-n2ncc3c(SCc4ccccc4)ncnc32)cc1 | inconclusive: 35.5 µM [inhibitor, single point] | –
Cc1ccc(S(=O)(=O)N(C)Cc2ccc(C(=O)NN=C3C4CC5CC(C4)CC3C5)cc2)cc1 | inactive | –
CCCCC(=O)Nc1ccc2c(c1)nc(CCN1CCOCC1)n2C | inconclusive: 35.5 µM [inhibitor, single point] | –
CC(=O)C1=C(c2ccccc2)N(C(C)=O)n2c(C)nnc2S1 | inactive | –
Nc1ccc(C(=O)Oc2ccccc2)c(O)c1 | inactive | –
COc1ccc(-c2cn3cc(C)ccc3n2)cc1Br | inconclusive: 28.2 µM [inhibitor, partial curve] | –
C=CCc1ccccc1OC[C@H](O)CNC(C)C | inactive | –
Cc1sc(NC(=O)CCl)c(C(=O)c2ccccc2)c1C | inactive | –
COC(=O)c1cc2oc(C)cc2n1CC(=O)Nc1cc(C)cc(C)c1 | inactive | –
CCOc1cc(NC(=S)Nc2ccccc2OC)c(OCC)cc1NC(=O)c1ccccc1C | inactive | –
S=c1[nH]nc(Nc2cccc3ccccc23)s1 | active: 25.1 µM | –
COc1ccccc1CNC(=O)CSc1ccc(-c2ccccn2)nn1 | inactive | –
CC(=O)Nc1sc2c(c1C#N)CCC2 | inactive | –
